Experimental data as given in the supplement of paper PMC4967469.

Assays:
Test in all cases: Viability of human cancer cell lines after 72 h of drug (GDSC screen)
[1] = compound: C/C=C(/C)C(=O)O[C@H]1C(C)=C2[C@H]([C@@H]1OC(=O)CCCCCCC)[C@@](C)(OC(C)=O)C[C@H](OC(=O)CCC)[C@@]1(O)[C@H]2OC(=O)[C@@]1(C)O [Thapsigargin]; conditions: top dose 0.512 µM; top dose inferred
Description: (§1)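 Human cancer cell lines in 384-well plates, medium with 10% serum, drug for 72 h over a 256-fold dose range (nine 2-fold or five 4-fold steps up to the top dose). Adherent lines were fixed and stained with the nucleic acid dye Syto60, suspension lines read with resazurin; signal relative to control wells, capped at 0 and 100%. One two-parameter sigmoid per drug and line, fitted in a mixed model over all curves with the slope shared within a line.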

[2] = compound: C=CC(=O)Nc1cc(-n2c(=O)ccc3cnc4ccc(-c5cn[nH]c5)cc4c32)ccc1C [QL-X-138]; conditions: top dose 10.24 µM; top dose inferred
Description: as §1

[3] = compound: CCn1c(-c2nonc2N)nc2cnc(Oc3cccc(NC(=O)c4ccc(OCCN5CCOCC5)cc4)c3)cc21 [GSK269962A]; conditions: top dose 5 µM; screen: GDSC drug entry 1192; top dose inferred
Description: as §1

[4] = compound: COc1cc(N2CCC(O)CC2)ccc1Nc1cc(Nc2ccccc2S(=O)(=O)C(C)C)c2cc[nH]c2n1 [MPS-1-IN-1]; conditions: top dose 20 µM; top dose inferred
Description: as §1

[5] = compound: COc1cc(O)c2c(c1)/C=C/C[C@H](O)[C@H](O)C(=O)/C=C\C[C@H](C)OC2=O [(5Z)-7-Oxozeaenol]; conditions: top dose 10 µM; top dose inferred
Description: as §1

[6] = compound: COc1cc2ncnc(-n3nc(-c4ccccn4)nc3N)c2cc1OC [CP466722]; conditions: top dose 16 µM; top dose inferred
Description: as §1

[7] = compound: COc1nc(C)cnc1NS(=O)(=O)c1cccnc1-c1ccc(-c2nnco2)cc1 [Zibotentan]; conditions: top dose 20 µM; top dose inferred
Description: as §1

[8] = compound: C[C@]1(c2nc3c(C(N)=O)cccc3[nH]2)CCCN1 [ABT-888]; conditions: top dose 5 µM; top dose inferred
Description: as §1

[9] = compound: Cc1ccc(F)c(NC(=O)Nc2ccc(-c3cccc4[nH]nc(N)c34)cc2)c1 [ABT-869]; conditions: top dose 1.024 µM; top dose inferred
Description: as §1

[10] = compound: Cc1cnc(-c2cnc(NCCNc3ccc(C#N)cn3)nc2-c2ccc(Cl)cc2Cl)[nH]1 [CHIR-99021]
Description: as §1

[11] = compound: O=c1cc(-c2cccc3c2Sc2ccccc2S3)oc(N2CCOCC2)c1 [KU-55933]; conditions: top dose 10 µM
Description: as §1

[12] = top dose 2.56 µM, screen: GDSC drug entry 154
[13] = top dose 10 µM, screen: GDSC drug entry 1241, top dose inferred

Cell Line | AUC [1] | IC50 [1] [µM] | AUC [2] | IC50 [2] [µM] | AUC [3] | IC50 [3] [µM] | AUC [4] | IC50 [4] [µM] | AUC [5] | IC50 [5] [µM] | AUC [6] | IC50 [6] [µM] | AUC [7] | IC50 [7] [µM] | AUC [8] | IC50 [8] [µM] | AUC [9] | IC50 [9] [µM] | AUC [10, 12] | IC50 [10, 12] [µM] | AUC [10, 13] | IC50 [10, 13] [µM] | AUC [11] | IC50 [11] [µM]
SK-HEP-1 (liver, adherent) | 0.204 | 0.00463 | 0.989 | > 10.2 | 0.668 | 0.884 | 0.983 | > 20 | 0.409 | 0.359 | 0.869 | 13.1 | 0.989 | > 20 | 0.989 | > 5 | 0.982 | > 1.02 | 0.989 | > 2.56 | 0.901 | > 10 | 0.981 | > 10
SK-N-AS (neuroblastoma, adherent) | 0.532 | 0.0396 | 0.652 | 1.81 | 0.969 | > 5 | 0.926 | > 20 | 0.369 | 0.256 | 0.751 | 6.02 | 0.983 | > 20 | 0.983 | > 5 | 0.981 | > 1.02 | 0.966 | > 2.56 | 0.978 | > 10 | 0.958 | > 10
SK-N-SH (neuroblastoma, adherent) | 0.393 | 0.0163 | 0.921 | > 10.2 | 0.78 | 2.04 | 0.732 | 5.69 | 0.504 | 0.641 | 0.824 | 9.36 | 0.981 | > 20 | 0.978 | > 5 | 0.987 | > 1.02 | 0.978 | > 2.56 | 0.911 | > 10 | 0.971 | > 10
SK-OV-3 (ovary, adherent) | 0.149 | < 0.002 | 0.76 | 4.5 | 0.862 | > 5 | 0.917 | > 20 | 0.803 | 6.5 | 0.697 | 4.16 | 0.975 | > 20 | 0.981 | > 5 | 0.962 | > 1.02 | 0.876 | > 2.56 | 0.92 | > 10 | 0.981 | > 10
SNU-387 (liver, adherent) | 0.231 | 0.00464 | 0.63 | 1.54 | 0.967 | > 5 | 0.852 | 18.9 | 0.816 | 6.54 | 0.6 | 1.95 | 0.973 | > 20 | 0.983 | > 5 | 0.967 | > 1.02 | 0.905 | > 2.56 | 0.899 | > 10 | 0.947 | > 10

Lines with a small IC50 respond at low doses; a limit (>, <) means that the fit lies beyond the doses tested. For AUC the same curve is integrated over the 256-fold range of doses and scaled to a fraction: 1 means no effect, lower means more sensitive. For part of these data: Where the top dose is marked as inferred, it was calculated from the reported fits. For part of these data: Where an entry number is given, a second screen of the drug exists; the two often differ.
